This data set concerns ATP. The experiment in a line: switch fluorescence ratio, 500 uM ATP over buffer (Cy3 cluster intensity, sum of 5 cycles each) (fold (ratio)); higher = stronger signal-on switching upon ATP binding; sequences stand for … in TCGTCGGCAGCGTCAGATGTGTATAAGAGACAGTTTTTTTTTTTTTTTTTTTTTTTTT…TC. The conditions noted are these: aptamer strand: ATP DNA aptamer (quencher-CACCTGGGGGAGTATTGCGGAGGAAGG + anchor), 100 nM annealed; ATP concentration: 500 uM; one replicate. The gist of the method: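 Values give the fluorescence ratio for each switch-domain sequence, averaged from per-cluster ratios of summed target-cycle to summed buffer-cycle Cy3 intensity. The Cy3-labelled switching-strand clusters sat on a modified Illumina MiSeq flow-cell, were annealed to 100 nM quencher-labelled ATP aptamer, and were imaged in selection buffer, then after 15 min with 500 uM ATP at 22 °C. Five cycles ran with NaOH stripping and re-annealing between them, and clusters outside 100-1000 RFU were excluded.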

Sequences with one replicate were seen in a single cluster, so their values are uncertain.
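Further: ATP exposure 15 min at 22 °C before imaging.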

For TTGATGATCG, the switch fluorescence ratio is 1.13.
As for ATCATCAGTA, the figure is 0.984; as for GACTTTGCGG, 1.02; as for TCTTGTCTTC, 1.34.
As for AAAGTTAGTG, the figure is 1.01; as for GACGTTAGTA, 1.03; as for TGACTGAGTT, 1.02.
In the case of GTAGGGTCTC it was 1.
On to GTTGCGCCCG, for which the switch fluorescence ratio came out at 1.02.
With TGTTAGGACT, the switch fluorescence ratio is 1.01.
In the case of GTTCAGAATT it was 1.01; in that of CATGTTCGGT, 0.966; in that of CGGTAATATT, 1.1.
In the case of AGATAGGGG it was 1.01.
With TTCGATTTCG, the switch fluorescence ratio came to 1.02.
As for GGATATAGGT, the figure is 1; as for GTTATCATCA, 0.992; as for GGCGATGACA, 1.
As for CAGAAATGTC, the figure is 1.11; as for ACAAACTTTT, 1.13.
For GATCCTGTTG, the switch fluorescence ratio is 1.07.
Turning to GTAGTTTGGT, the switch fluorescence ratio is 1.01.
As for TGGCCGCCCG, the figure is 0.961; as for TTTTATTGG, 0.997.
On to CGGGGTTAAT, for which the switch fluorescence ratio was 1.02.
For TGCGGTACTA, the switch fluorescence ratio stood at 1.15.
As for TTTCGAAGGC, the figure is 0.986.
Turning to AGAACCTCAG, the switch fluorescence ratio was determined as 1.01.
As for AGAAACGTGC, the figure is 1.11; as for AAGTTAAAAC, 0.994.
As for CTGAATAGGC, the figure is 1.08; as for ACATAACGTT, 1.38; as for ATAACGACAA, 1.23.
As for CTGCGTTTCA, the figure is 1.04; as for TCGCGCACAA, 1.04.
Take GTACGCAAGT: the switch fluorescence ratio turned out to be 1.16.
With GCATGTTCGT, the switch fluorescence ratio came to 0.985.
As for TGCAACGGCT, the figure is 0.969.
As for CACTGTGGTC, the figure is 1.01.
In the case of GTCGTAAATT it was 0.98.
TTAGTGGAAC: the switch fluorescence ratio amounted to 0.969.
With TCTGTCATCT, the switch fluorescence ratio is 0.985.
In the case of TCGGTATTAG it was 1.
In the case of TCGAACGTAC it was 1.75; in that of TACCTGCTAT, 1.08; in that of GGTGCCTCAT, 1.
As for AACGGAAACC, the figure is 1.15; as for TATCCCCTTT, 1.08.
Take GGCGCGACAC: the switch fluorescence ratio stood at 1.03.
Consider TACTCAACGG, for which the switch fluorescence ratio was 1.3.
In the case of GGAGTGAAT it was 1.02; in that of AGGCGAGACA, 1.02.
In the case of GTGTAGTCCT it was 1.02; in that of GGATATAGAT, 0.957.
As for ATTTAGCATA, the figure is 1.36.
On to ACATCAAAAA, for which the switch fluorescence ratio was determined as 1.
In the case of TTAGCGCGGA it was 0.992.
As for CATCTCAGGA, the figure is 0.985.
For the sequence GACCTATGGG, the switch fluorescence ratio was found to be 1.11.
As for GACATAAC, the figure is 1.1; as for TTAAACTGAA, 1.01.
As to GGAGTTCGGA, the switch fluorescence ratio is 1.02.
In the case of CTAGCTCCG it was 1.08.
In the case of GCATACCTCT it was 1.06; in that of TTGCTAAGTG, 0.998.
In the case of GCCTCTTATG, the switch fluorescence ratio amounted to 1.01.
In the case of TCTGGTAGGC it was 1.03; in that of AAGCCGGGGA, 1; in that of ATGAGGTACA, 1.
As for CAATCAACGA, the figure is 1.01.
In the case of TTGATAGTTT it was 1.05; in that of AAAAGACGAG, 1.01.
As for TTTCATGTAC, the switch fluorescence ratio was determined as 1.21.
In the case of AGACCGGC it was 1.02; in that of GGTACTGCGT, 1.07; in that of TTTGTACGCC, 1.03.
As for TTATAACATG, the figure is 0.995; as for CAGAAGTTGC, 1.1; as for TGTTTGATAA, 0.97.
With TTTTTGATGC, the switch fluorescence ratio was 1.02.
As for GGCGCGTTAT, the figure is 0.976; as for ATGTGTTTCT, 0.994.
Turning to TAATCATTGT, the switch fluorescence ratio amounted to 1.
As for TACCAGGGAC, the figure is 1.09.
As to CAGGGACGTG, the switch fluorescence ratio was 1.03.
As for TTACCCACTG, the figure is 1.24.
As for GCACGGTAGG, the figure is 1.08.
In the case of AATACGTGAT it was 1.04.
As for TTCATTCGGC, the switch fluorescence ratio worked out at 1.02.
As for ACTCCACATA, the figure is 3.84; as for ACCTAGAAAC, 1.11.
Turning to ACTTTCCCGT, the switch fluorescence ratio stood at 1.15.
As for GCGAGCCCGC, the figure is 0.978; as for CTAGTGCCGG, 0.977; as for AGGTCGTCGC, 1.12.
In the case of TGTTGCTGTT it was 1.04; in that of TTGGCCGCGG, 1.03.
In the case of TTTTCATTA it was 0.993; in that of TCACGACACT, 1.74; in that of TTGCTACCAT, 0.976.
Regarding TAGGCTAGAT, the switch fluorescence ratio was found to be 1.01.
In the case of CGCCCTGTCT it was 1.02.
As for CTAATCCGGG, the figure is 1.08.
Consider CTCTATAGTC, for which the switch fluorescence ratio worked out at 1.04.
Turning to CACGGTTTAT, the switch fluorescence ratio turned out to be 1.04.
In the case of TTATTGTTGC it was 1.01; in that of TTTCCGAGTG, 0.982; in that of GGGGGTCCTG, 1.04.
As for GATAGATTTT, the figure is 0.997; as for TTTTCGTGCC, 0.963; as for TTAGGGCACG, 1.03.
On to TTCTCCTAGA, for which the switch fluorescence ratio is 0.996.
As for CGAGCTCATC, the figure is 1.01; as for TCACTTCC, 1.81; as for TTGACAGAGC, 1.05.
As for CGTAGGGACG, the figure is 1.12; as for TTAGAGGGGC, 1.04.
In the case of CTCGCGAGAC it was 1.6; in that of TCGAGAATAT, 0.977; in that of CATTTGCCGT, 1.01.

The values are drawn from the supplement of paper PMC10126150.
